Measured values taken from patent US20210032313A1 (Daiichi Sankyo, published 2021).

T1: mouse KLK14 (mouse, UniProt Q8CGR5 24-250)
T1 sequence: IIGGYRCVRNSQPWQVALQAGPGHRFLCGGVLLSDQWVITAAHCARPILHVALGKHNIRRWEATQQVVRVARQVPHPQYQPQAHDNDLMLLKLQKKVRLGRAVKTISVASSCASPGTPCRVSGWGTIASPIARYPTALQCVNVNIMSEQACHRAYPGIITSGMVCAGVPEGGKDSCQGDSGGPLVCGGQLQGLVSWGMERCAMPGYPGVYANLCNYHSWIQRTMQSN

T2: mouse KLK5 (mouse)
T2 chain: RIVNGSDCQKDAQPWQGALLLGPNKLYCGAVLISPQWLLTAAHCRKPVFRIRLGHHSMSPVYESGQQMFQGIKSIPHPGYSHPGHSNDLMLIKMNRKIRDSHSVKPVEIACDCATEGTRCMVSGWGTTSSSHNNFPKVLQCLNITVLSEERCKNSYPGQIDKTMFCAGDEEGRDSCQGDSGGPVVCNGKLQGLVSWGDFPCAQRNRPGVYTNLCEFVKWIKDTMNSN

T3: human KLK5 (human, UniProt Q9Y337 67-293)
T3 construct: also called hKLK5; active KLK5; not shown: C-terminal tag with His tag, encoded by primers 3/4
T3 sequence: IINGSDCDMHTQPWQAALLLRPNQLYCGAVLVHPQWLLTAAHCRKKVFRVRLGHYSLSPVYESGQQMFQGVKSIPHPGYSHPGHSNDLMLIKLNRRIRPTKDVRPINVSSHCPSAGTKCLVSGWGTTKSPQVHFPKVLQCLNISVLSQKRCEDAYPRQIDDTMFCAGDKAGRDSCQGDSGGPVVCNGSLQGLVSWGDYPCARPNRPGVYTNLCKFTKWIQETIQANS

T4: human KLK14 (human, UniProt Q9P0G3 25-251)
T4 sequence: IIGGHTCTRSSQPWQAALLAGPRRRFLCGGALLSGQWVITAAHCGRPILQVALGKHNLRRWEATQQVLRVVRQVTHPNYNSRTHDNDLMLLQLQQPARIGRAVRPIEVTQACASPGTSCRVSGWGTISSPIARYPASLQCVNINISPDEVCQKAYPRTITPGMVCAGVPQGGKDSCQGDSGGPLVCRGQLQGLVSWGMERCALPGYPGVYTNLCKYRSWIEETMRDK


Key:
mouse KLK7 = mouse KLK7 (mouse, UniProt Q91VE3 26-249); assay: cell-based or functional assay
mouse KLK7, sequence (Q91VE3 26-249): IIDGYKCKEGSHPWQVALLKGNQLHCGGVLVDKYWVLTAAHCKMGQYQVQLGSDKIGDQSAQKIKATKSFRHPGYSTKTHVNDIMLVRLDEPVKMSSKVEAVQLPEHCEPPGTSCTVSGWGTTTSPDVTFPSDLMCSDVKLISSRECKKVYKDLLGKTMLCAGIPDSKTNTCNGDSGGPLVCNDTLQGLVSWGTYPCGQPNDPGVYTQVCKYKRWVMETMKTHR

mouse KLK14 = target: T1, mouse KLK14; assay: cell-based or functional assay
mouse KLK5 = target: T2, mouse KLK5; assay: cell-based or functional assay
human KLK5 [1] = target: T3, human KLK5; assay: SPR, BIAcore T200; Fc fusion captured by anti-human IgG (Fc), KLK5 as analyte; single cycle kinetics, 1:1 model
Method: In order to measure the binding affinity of a KLK5 inhibitory peptide Fc fusion prepared in (5-2), which will be described below, surface plasmon resonance analysis was conducted using BIAcore T 200 (GE healthcare).
The KLK5 inhibitory peptide Fc fusion was captured at a flow rate of 20 μL/min by Sensor Chip CM5 (GE healthcare) on which an anti-human IgG (Fc) antibody was immobilized to immobilize about 30 to 50 RU. Thereafter, KLK5, serially diluted 2-fold with HBS-EP (0.625 to 10 nM), was added thereto as an analyte at a flow rate of 30 μL/min. In the BIAcore T 200 Evaluation software (version 2.0), kon and koff were calculated by analysis using Single cycle kinetics in a simple one-to-one Langmuir binding model. The dissociation constant KD was calculated as a ratio of koff/kₒₙ. Further, the binding activity of KLK5 to multiple KLK5 inhibitory peptide Fc fusions was measured by regenerating Sensor Chip CM5 on which the anti-human IgG (Fc) antibody was immobilized using a Regeneration buffer attached to a Human Antibody Capture Kit (GE healthcare) and repeatedly capturing the KLK5 inhibitory peptide Fc fusion.

human KLK5 [2] = target: T3, human KLK5; assay: cell-based or functional assay
human KLK14 = target: T4, human KLK14; assay: cell-based or functional assay
human KLK5 [3] = target: T3, human KLK5; assay: inhibition of human KLK5 (10 nM) on Boc-Val-Pro-Arg-AMC (100 µM), Morrison equation
Method: The inhibitory activity of the KLK5 inhibitory peptide Fc fusions against human KLK5 was evaluated, and the inhibition constant Kᵢ was calculated. A substrate peptide Boc-Val-Pro-Arg-AMC (R&D Systems, Inc., ES011) was dissolved in DMSO to 10 mM and diluted with an assay buffer (50 mM Tris-HCl, 150 mM NaCl, pH 8.0) for use at a final concentration of 25 to 200 μM. 25 μL each of human KLK5 and the KLK5 inhibitory peptide Fc fusion diluted with the assay buffer were mixed, followed by a reaction at 37° C. for 20 minutes. Thereafter, 50 μL of a substrate diluted with the assay buffer was added thereto, and the fluorescence signal (excitation at 380 nm/emission at 460 nm) was measured using Enspire.
The degradation rate of the substrate peptide by each inhibitory peptide Fc fusion at each concentration was calculated, and the human KLK5 inhibitory activity of each inhibitory peptide Fc fusion was evaluated, with the degradation rate of the inhibitory peptide Fc fusion at a concentration of 0 nM taken as 100% (FIG. 102). Using GraphPad Prism (version 5.0; GraphPad Software Inc.), the maximum reaction rate Vₘₐₓ and the Michaelis constant Kₘ were calculated according to the Michaelis-Menten equation at an enzyme concentration of 10 nM. […] The average value of three independent experiments was used to calculate the Kᵢ value.

human KLK7 = human KLK7 (human, UniProt P49862 30-253); assay: cell-based or functional assay
human KLK7, sequence (P49862 30-253): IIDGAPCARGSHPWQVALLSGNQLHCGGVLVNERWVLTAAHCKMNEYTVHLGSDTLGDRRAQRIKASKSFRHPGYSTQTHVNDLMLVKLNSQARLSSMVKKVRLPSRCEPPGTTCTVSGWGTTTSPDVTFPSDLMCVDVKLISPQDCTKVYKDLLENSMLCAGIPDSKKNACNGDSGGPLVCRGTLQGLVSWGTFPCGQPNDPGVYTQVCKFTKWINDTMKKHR

Row | IC50(nM) for mKLK7 (mouse KLK7) [nM] | IC50(nM) for mKLK14 (mouse KLK14) [nM] | IC50(nM) for mKLK5 (mouse KLK5) [nM] | Kd (human KLK5 [1]) [nM] | koff (human KLK5 [1]) [s⁻¹] | kon (human KLK5 [1]) [M⁻¹ s⁻¹] | IC50(nM) for hKLK5 (human KLK5 [2]) [nM] | IC50(nM) for hKLK14 (human KLK14) [nM] | Ki (human KLK5 [3]) [nM] | IC50(nM) for hKLK7 (human KLK7) [nM] | Binder
1 | 340 | 48 | 4.4 | 0.00338 | 3.52e-06 | 1.04e+06 | 3.1 | – | – | – | KLK5/KLK14 inhibitory peptide Fc fusion D3-K50015-Fc (Fc fusion) DDDGPQFGLFSKYRTPNCYDTTTHYCSREYDPVCGSDMSTYANECTLCMKIREGGHNIKIIRNGPC[gap - human IgG1 Fc]
2 | 6.3 | 300 | 270 | < 0.0114 | < 1e-06 | 88100 | 9.5 | > 1000 | – | – | KLK5/KLK7 inhibitory peptide Fc fusion D3-K50031-Fc (Fc fusion) DDDGPQFGLFSKYRTPNCGEYKGRGCYYHYDPVCGSDMSTYANECTLCMKIREGGHNIKIIRNGPC[gap - human IgG1 Fc]
3 | > 1000 | > 1000 | 5.4 | 0.0115 | 6.52e-06 | 566000 | 4.3 | 190 | – | – | KLK5 inhibitory peptide Fc fusion D3-K50062-Fc (Fc fusion) DDDGPQFGLFSKYRTPNCQQYRELGCGRQYDPVCGSDMSTYANECTLCMKIREGGHNIKIIRNGPC[gap - human IgG1 Fc]
4 | > 1000 | 350 | 6.8 | < 0.00176 | < 1.62e-06 | 922000 | 4.3 | 210 | – | – | KLK5 inhibitory peptide Fc fusion D3-K50098dN-Fc (Fc fusion) DDDGPQFGLFSKYRTPNCGSQTLGSCSREYDPVCGSDMSTYANECTLCMKIREGGHNIKIIRNGPC[gap - human IgG1 Fc]
5 | > 1000 | > 1000 | 35 | 0.00781 | 5.6e-06 | 718000 | 4.3 | > 1000 | 0.36 | – | KLK5 inhibitory peptide Fc fusion D3-K50016dN-Fc (Fc fusion) DDDGPQFGLFSKYRTPNCGQWQYSSCDRVYDPVCGSDMSTYANECTLCMKIREGGHNIKIIRNGPC[gap - human IgG1 Fc]
6 | > 1000 | > 1000 | 6.8 | 0.00422 | 2.32e-06 | 549000 | 3.7 | 340 | 0.19 | – | KLK5 inhibitory peptide Fc fusion D3-K50055-Fc (Fc fusion) DDDGPQFGLFSKYRTPNCANTMKQDCTREYDPVCGSDMSTYANECTLCMKIREGGHNIKIIRNGPC[gap - human IgG1 Fc]
7 | > 1000 | > 1000 | 39 | 0.0103 | 2.93e-06 | 283000 | 5.7 | 960 | – | – | KLK5 inhibitory peptide Fc fusion D3-K51034-Fc (Fc fusion) DDDGPQFGLFSKYRTPNCGRYTTGGCNKEYEPVCGSDMSTYANECTLCMKIREGGHNIKIIRNGPC[gap - human IgG1 Fc]
8 | 37 | 240 | 330 | 0.133 | 1.96e-05 | 147000 | 8.6 | – | – | 28 | KLK5/KLK7 inhibitory peptide Fc fusion D3-K51005-Fc (Fc fusion) DDDGPQFGLFSKYRTPNCMQHARQGCHYDYDPVCGSDMSTYANECTLCMKIREGGHNIKIIRNGPC[gap - human IgG1 Fc]
9 | 730 | 510 | 5.1 | 0.0112 | 7.86e-06 | 700000 | 4.6 | 350 | – | – | KLK5 inhibitory peptide Fc fusion D3-K51090-Fc (Fc fusion) DDDGPQFGLFSKYRTPNCDEIGKYGCGRSYDPVCGSDMSTYANECTLCMKIREGGHNIKIIRNGPC[gap - human IgG1 Fc]
10 | 24 | 380 | 600 | 0.206 | 1.79e-05 | 86900 | 12 | > 1000 | – | 18 | KLK5/KLK7 inhibitory peptide Fc fusion D3-K51057-Fc (Fc fusion) DDDGPQFGLFSKYRTPNCGTMQGSGCTYHYEPVCGSDMSTYANECTLCMKIREGGHNIKIIRNGPC[gap - human IgG1 Fc]
11 | 110 | > 1000 | 16 | 0.00335 | 1.81e-06 | 539000 | 4.5 | – | – | 220 | KLK5/KLK7 inhibitory peptide Fc fusion D3-K51028-Fc (Fc fusion) DDDGPQFGLFSKYRTPNCYQYRSKGCTHEYDPVCGSDMSTYANECTLCMKIREGGHNIKIIRNGPC[gap - human IgG1 Fc]
12 | > 1000 | > 1000 | 26 | 0.00525 | 5.69e-06 | 1.08e+06 | 3.9 | – | 0.44 | – | KLK5 inhibitory peptide Fc fusion D3-K50032dN-Fc (Fc fusion) DDDGPQFGLFSKYRTPNCLQWTDHQCERDYDPVCGSDMSTYANECTLCMKIREGGHNIKIIRNGPC[gap - human IgG1 Fc]
13 | 410 | 24 | 6.8 | 0.00393 | 2.81e-06 | 714000 | 4.5 | 42 | – | > 1000 | KLK5/KLK14 inhibitory peptide Fc fusion D3-K51069dN-Fc (Fc fusion) DDDGPQFGLFSKYRTPNCGQVVETYCNRDYDPVCGSDMSTYANECTLCMKIREGGHNIKIIRNGPC[gap - human IgG1 Fc]
14 | > 1000 | > 1000 | 6.3 | – | – | – | 5.8 | > 1000 | – | – | KLK5 inhibitory peptide Fc fusion D1-K50055-Fc (Fc fusion) DGPQFGLFSKYRTPNCANTMKQDCTREYDPVCGSDMSTYANECTLCMKIREGGHNIKIIRNGPC[gap - human IgG1 Fc]
